Repeats are few or missing, and single values can be far off.
Columns and labels:
CHO-K1 [1] = test: relative survival (nuclei to bead ratio vs DMSO control) (% of vehicle control); higher = more surviving cells
Method: (§1)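 Flow-cytometric in vitro micronucleus assay (Litron MicroFlow) in CHO-K1 cells in 96-well plates, 19 concentrations (4.5-200 µM, n=1 per concentration). Without S9, cells were exposed for 24 h and sampled at 48 h. With Aroclor 1254-induced rat liver S9, cells were exposed for 3-4 h and sampled at 27-28 h. Read-outs are %MN and %hypodiploid nuclei relative to nucleated events, and relative survival as the nuclei-to-bead ratio versus the 1% DMSO vehicle control (x100).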

CHO-K1 [2] = test: hypodiploid nuclei frequency (% of nucleated events); higher = more hypodiploid events (aneugenic)
Method: as §1

CHO-K1 [3] = test: micronucleus frequency (% of nucleated events); higher = more micronuclei (genotoxic)
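For hypodiploid nuclei frequency (% of nucleated events) in this document: hypodiploid nuclei gated on a flow cytometer with 488 nm excitation after SYTOX Green staining, cultures at 37 °C, positive controls vinblastine without S9 and cyclophosphamide with S9.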
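For micronucleus frequency (% of nucleated events) in this document: cells lysed with nuclei stained by SYTOX Green, then micronucleus-gated events counted against nucleated events by flow cytometry with 488 nm excitation.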
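For relative survival (nuclei to bead ratio vs DMSO control) in this document: Lysed-cell nuclei stained with SYTOX Green and counted against counting beads by flow cytometry at 488 nm excitation, with vinblastine (no S9) and cyclophosphamide (plus S9) as positive controls.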

O=C1C2(Cl)C3(Cl)C4(Cl)C(Cl)(Cl)C5(Cl)C3(Cl)C1(Cl)C5(Cl)C24Cl (configuration not stated) [Kepone]
Conditions	hypodiploid nuclei frequency, CHO-K1 [2] [%]	micronucleus frequency, CHO-K1 [3] [%]	relative survival, CHO-K1 [1]
concentration: 4.5 (µM), S9 metabolic activation: with S9, exposure time: 3-4 hours	0.26	1.7	102
concentration: 4.5 (µM), S9 metabolic activation: without S9, exposure time: 24 hours	0.44	2.12	99.6
concentration: 5.63 (µM), S9 metabolic activation: with S9, exposure time: 3-4 hours	0.2	1.42	103
concentration: 5.63 (µM), S9 metabolic activation: without S9, exposure time: 24 hours	0.38	1.84	117
concentration: 7.04 (µM), S9 metabolic activation: with S9, exposure time: 3-4 hours	0.34	1.7	103
concentration: 7.04 (µM), S9 metabolic activation: without S9, exposure time: 24 hours	0.52	2.16	105
concentration: 8.8 (µM), S9 metabolic activation: with S9, exposure time: 3-4 hours	0.14	1.44	108
concentration: 8.8 (µM), S9 metabolic activation: without S9, exposure time: 24 hours	0.48	1.82	122
concentration: 11 (µM), S9 metabolic activation: with S9, exposure time: 3-4 hours	0.2	1.64	109
concentration: 11 (µM), S9 metabolic activation: without S9, exposure time: 24 hours	0.64	1.18	110
concentration: 13.7 (µM), S9 metabolic activation: with S9, exposure time: 3-4 hours	0.2	1.76	97.9
concentration: 13.7 (µM), S9 metabolic activation: without S9, exposure time: 24 hours	0.24	1.72	108
concentration: 17.2 (µM), S9 metabolic activation: with S9, exposure time: 3-4 hours	0.34	2.08	105
concentration: 17.2 (µM), S9 metabolic activation: without S9, exposure time: 24 hours	0.44	1.62	119
concentration: 21.5 (µM), S9 metabolic activation: with S9, exposure time: 3-4 hours	0.24	1.86	105
concentration: 21.5 (µM), S9 metabolic activation: without S9, exposure time: 24 hours	0.64	1.4	105
concentration: 26.8 (µM), S9 metabolic activation: with S9, exposure time: 3-4 hours	0.16	1.48	132
concentration: 26.8 (µM), S9 metabolic activation: without S9, exposure time: 24 hours	0.4	2.18	68.8
concentration: 33.6 (µM), S9 metabolic activation: with S9, exposure time: 3-4 hours	0.2	1.58	110
concentration: 33.6 (µM), S9 metabolic activation: without S9, exposure time: 24 hours	0.6	2.28	61.2
concentration: 41.9 (µM), S9 metabolic activation: with S9, exposure time: 3-4 hours	0.18	1.5	108
concentration: 41.9 (µM), S9 metabolic activation: without S9, exposure time: 24 hours	0.52	2.84	60.7
concentration: 52.4 (µM), S9 metabolic activation: with S9, exposure time: 3-4 hours	0.2	1.44	106
concentration: 52.4 (µM), S9 metabolic activation: without S9, exposure time: 24 hours	0.54	3.52	50
concentration: 65.5 (µM), S9 metabolic activation: with S9, exposure time: 3-4 hours	0.42	2.44	86.2
concentration: 65.5 (µM), S9 metabolic activation: without S9, exposure time: 24 hours	2.68	28.6	50.8
concentration: 81.9 (µM), S9 metabolic activation: with S9, exposure time: 3-4 hours	0.34	5.32	40.9
concentration: 81.9 (µM), S9 metabolic activation: without S9, exposure time: 24 hours	–	–	39.5
concentration: 102 (µM), S9 metabolic activation: with S9, exposure time: 3-4 hours	–	–	12.2
concentration: 102 (µM), S9 metabolic activation: without S9, exposure time: 24 hours	–	–	19.3
concentration: 128 (µM), S9 metabolic activation: with S9, exposure time: 3-4 hours	–	–	0.12
concentration: 128 (µM), S9 metabolic activation: without S9, exposure time: 24 hours	–	–	6.96
concentration: 200 (µM), S9 metabolic activation: with S9, exposure time: 3-4 hours	–	–	0.06
